This is one part of the list. The list includes weakly bound sequences.
molecular target: T1, MBP-FoxP3dN (UniProt Q99JB6); assay: PD-seq (MBP pull-down with sequencing); settings: 20 mM Tris-HCl pH 7.5, 100 mM NaCl, 1.5 mM MgCl2, 0.4 uM protein, 0.1 uM dsDNA library, 30 min, room temperature, amylose pull-down; high values mean tight binding; double strand, one strand shown
T1 sequence: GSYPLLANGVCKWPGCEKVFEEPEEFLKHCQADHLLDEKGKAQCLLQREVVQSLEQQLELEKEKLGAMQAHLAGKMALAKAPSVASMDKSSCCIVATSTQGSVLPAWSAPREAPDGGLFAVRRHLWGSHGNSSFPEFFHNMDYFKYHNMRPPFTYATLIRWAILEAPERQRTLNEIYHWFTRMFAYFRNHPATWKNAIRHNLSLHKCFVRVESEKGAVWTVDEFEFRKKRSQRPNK

Sequence | binding signal (RPM ratio (pull-down/input))
GATGATTGTTCTCCCAGCTGATGAATTCCGGACGTCGAGTAAACAAATTTTCCTAATCTTTCTGTTCAAGCGCCATCTAC | 0.243
GATGATTGTTCTCCCAGCTGATGAATTGTTTGACTCGAGTAAACAAATTTTCCTAATCTTTCTGTTCAAGCGCCATCTAC | 1.33
GATGATTGTTCTCCCAGCTGATGAATTAGGAGGCTCGAGTAAACAAATTTTCCTAATCTTTCTGTTCAAGCGCCATCTAC | 0.442
GATGATTGTTCTCCCAGCTGATGAATTTCTCGGTTCGAGTAAACAAATTTTCCTAATCTTTCTGTTCAAGCGCCATCTAC | 0.261
GATGATTGTTCTCCCAGCTGATGAATTTCTCTGCTCGAGTAAACAAATTTTCCTAATCTTTCTGTTCAAGCGCCATCTAC | 0.231
GATGATTGTTCTCCCAGCTGATGAATTCATGAGATCGAGTAAACAAATTTTCCTAATCTTTCTGTTCAAGCGCCATCTAC | 0.253
GATGATTGTTCTCCCAGCTGATGAATTTAAAAACTCGAGTAAACAAATTTTCCTAATCTTTCTGTTCAAGCGCCATCTAC | 0.194
GATGATTGTTCTCCCAGCTGATGAATTACAAAGATCGAGTAAACAAATTTTCCTAATCTTTCTGTTCAAGCGCCATCTAC | 0.335
GATGATTGTTCTCCCAGCTGATGAATTTCTTCAGTCGAGTAAACAAATTTTCCTAATCTTTCTGTTCAAGCGCCATCTAC | 0.178
GATGATTGTTCTCCCAGCTGATGAATTAGTAACCTCGAGTAAACAAATTTTCCTAATCTTTCTGTTCAAGCGCCATCTAC | 0.688
GATGATTGTTCTCCCAGCTGATGAATTAGTGGGGTCGAGTAAACAAATTTTCCTAATCTTTCTGTTCAAGCGCCATCTAC | 1.38
GATGATTGTTCTCCCAGCTGATGAATTTGATCGCTCGAGTAAACAAATTTTCCTAATCTTTCTGTTCAAGCGCCATCTAC | 0.351
GATGATTGTTCTCCCAGCTGATGAATTACTGCGTTCGAGTAAACAAATTTTCCTAATCTTTCTGTTCAAGCGCCATCTAC | 1.4
GATGATTGTTCTCCCAGCTGATGAATTTGGATTTTCGAGTAAACAAATTTTCCTAATCTTTCTGTTCAAGCGCCATCTAC | 0.662
GATGATTGTTCTCCCAGCTGATGAATTTAATTCCTCGAGTAAACAAATTTTCCTAATCTTTCTGTTCAAGCGCCATCTAC | 0.881
GATGATTGTTCTCCCAGCTGATGAATTGCCTAATTCGAGTAAACAAATTTTCCTAATCTTTCTGTTCAAGCGCCATCTAC | 0.591
GATGATTGTTCTCCCAGCTGATGAATTGTTTACGTCGAGTAAACAAATTTTCCTAATCTTTCTGTTCAAGCGCCATCTAC | 7.65
GATGATTGTTCTCCCAGCTGATGAATTGAATAGATCGAGTAAACAAATTTTCCTAATCTTTCTGTTCAAGCGCCATCTAC | 0.257
GATGATTGTTCTCCCAGCTGATGAATTAATCCTATCGAGTAAACAAATTTTCCTAATCTTTCTGTTCAAGCGCCATCTAC | 0.347
GATGATTGTTCTCCCAGCTGATGAATTACGGGGGTCGAGTAAACAAATTTTCCTAATCTTTCTGTTCAAGCGCCATCTAC | 0.593
GATGATTGTTCTCCCAGCTGATGAATTCACTTCCTCGAGTAAACAAATTTTCCTAATCTTTCTGTTCAAGCGCCATCTAC | 0.294

Sequence | binding signal (RPM ratio (pull-down/input))
GATGATTGTTCTCCCAGCTGATGAATTTAGGATCTCGAGTAAACAAATTTTCCTAATCTTTCTGTTCAAGCGCCATCTAC | 0.447
GATGATTGTTCTCCCAGCTGATGAATTTCTATACTCGAGTAAACAAATTTTCCTAATCTTTCTGTTCAAGCGCCATCTAC | 0.435
GATGATTGTTCTCCCAGCTGATGAATTGTCGGCCTCGAGTAAACAAATTTTCCTAATCTTTCTGTTCAAGCGCCATCTAC | 0.457
GATGATTGTTCTCCCAGCTGATGAATTCAGAATATCGAGTAAACAAATTTTCCTAATCTTTCTGTTCAAGCGCCATCTAC | 0.391
GATGATTGTTCTCCCAGCTGATGAATTGTAAGCCTCGAGTAAACAAATTTTCCTAATCTTTCTGTTCAAGCGCCATCTAC | 0.709
GATGATTGTTCTCCCAGCTGATGAATTACTATCTTCGAGTAAACAAATTTTCCTAATCTTTCTGTTCAAGCGCCATCTAC | 0.46
GATGATTGTTCTCCCAGCTGATGAATTTTTGTTCTCGAGTAAACAAATTTTCCTAATCTTTCTGTTCAAGCGCCATCTAC | 0.494
GATGATTGTTCTCCCAGCTGATGAATTCTGCCATTCGAGTAAACAAATTTTCCTAATCTTTCTGTTCAAGCGCCATCTAC | 4.97
GATGATTGTTCTCCCAGCTGATGAATTTCTGTTTTCGAGTAAACAAATTTTCCTAATCTTTCTGTTCAAGCGCCATCTAC | 1.13
GATGATTGTTCTCCCAGCTGATGAATTCTGGTCGTCGAGTAAACAAATTTTCCTAATCTTTCTGTTCAAGCGCCATCTAC | 0.464
GATGATTGTTCTCCCAGCTGATGAATTCTGCGTATCGAGTAAACAAATTTTCCTAATCTTTCTGTTCAAGCGCCATCTAC | 2.61
GATGATTGTTCTCCCAGCTGATGAATTGAAGACCTCGAGTAAACAAATTTTCCTAATCTTTCTGTTCAAGCGCCATCTAC | 0.196
GATGATTGTTCTCCCAGCTGATGAATTCCGGGCGTCGAGTAAACAAATTTTCCTAATCTTTCTGTTCAAGCGCCATCTAC | 0.464
GATGATTGTTCTCCCAGCTGATGAATTGGAAAAATCGAGTAAACAAATTTTCCTAATCTTTCTGTTCAAGCGCCATCTAC | 0.143
GATGATTGTTCTCCCAGCTGATGAATTTCAATTATCGAGTAAACAAATTTTCCTAATCTTTCTGTTCAAGCGCCATCTAC | 1.24
GATGATTGTTCTCCCAGCTGATGAATTGCCGTTCTCGAGTAAACAAATTTTCCTAATCTTTCTGTTCAAGCGCCATCTAC | 0.886
GATGATTGTTCTCCCAGCTGATGAATTATTTTTCTCGAGTAAACAAATTTTCCTAATCTTTCTGTTCAAGCGCCATCTAC | 0.938
GATGATTGTTCTCCCAGCTGATGAATTAACGTCATCGAGTAAACAAATTTTCCTAATCTTTCTGTTCAAGCGCCATCTAC | 0.642
GATGATTGTTCTCCCAGCTGATGAATTACACTTATCGAGTAAACAAATTTTCCTAATCTTTCTGTTCAAGCGCCATCTAC | 1.11
GATGATTGTTCTCCCAGCTGATGAATTAAGCGTTTCGAGTAAACAAATTTTCCTAATCTTTCTGTTCAAGCGCCATCTAC | 3.35
GATGATTGTTCTCCCAGCTGATGAATTATACAACTCGAGTAAACAAATTTTCCTAATCTTTCTGTTCAAGCGCCATCTAC | 0.885

Sequence | binding signal (RPM ratio (pull-down/input))
GATGATTGTTCTCCCAGCTGATGAATTTGTATGATCGAGTAAACAAATTTTCCTAATCTTTCTGTTCAAGCGCCATCTAC | 3.84
GATGATTGTTCTCCCAGCTGATGAATTATATGTGTCGAGTAAACAAATTTTCCTAATCTTTCTGTTCAAGCGCCATCTAC | 2.18
GATGATTGTTCTCCCAGCTGATGAATTACGCGGCTCGAGTAAACAAATTTTCCTAATCTTTCTGTTCAAGCGCCATCTAC | 0.65
GATGATTGTTCTCCCAGCTGATGAATTCCCATGGTCGAGTAAACAAATTTTCCTAATCTTTCTGTTCAAGCGCCATCTAC | 0.262
GATGATTGTTCTCCCAGCTGATGAATTGGCTTAATCGAGTAAACAAATTTTCCTAATCTTTCTGTTCAAGCGCCATCTAC | 0.334
GATGATTGTTCTCCCAGCTGATGAATTCAGTTAGTCGAGTAAACAAATTTTCCTAATCTTTCTGTTCAAGCGCCATCTAC | 1.62
GATGATTGTTCTCCCAGCTGATGAATTTAGACTGTCGAGTAAACAAATTTTCCTAATCTTTCTGTTCAAGCGCCATCTAC | 0.852
GATGATTGTTCTCCCAGCTGATGAATTTAATTTGTCGAGTAAACAAATTTTCCTAATCTTTCTGTTCAAGCGCCATCTAC | 3.39
GATGATTGTTCTCCCAGCTGATGAATTCTCAACCTCGAGTAAACAAATTTTCCTAATCTTTCTGTTCAAGCGCCATCTAC | 0.216
GATGATTGTTCTCCCAGCTGATGAATTCACCTGTTCGAGTAAACAAATTTTCCTAATCTTTCTGTTCAAGCGCCATCTAC | 0.3
GATGATTGTTCTCCCAGCTGATGAATTATCCTCTTCGAGTAAACAAATTTTCCTAATCTTTCTGTTCAAGCGCCATCTAC | 0.291
GATGATTGTTCTCCCAGCTGATGAATTCTCGGAATCGAGTAAACAAATTTTCCTAATCTTTCTGTTCAAGCGCCATCTAC | 0.194
GATGATTGTTCTCCCAGCTGATGAATTGCAAGAGTCGAGTAAACAAATTTTCCTAATCTTTCTGTTCAAGCGCCATCTAC | 0.475
GATGATTGTTCTCCCAGCTGATGAATTAGCGACCTCGAGTAAACAAATTTTCCTAATCTTTCTGTTCAAGCGCCATCTAC | 0.452
GATGATTGTTCTCCCAGCTGATGAATTGACCACGTCGAGTAAACAAATTTTCCTAATCTTTCTGTTCAAGCGCCATCTAC | 0.286
GATGATTGTTCTCCCAGCTGATGAATTGACTGGGTCGAGTAAACAAATTTTCCTAATCTTTCTGTTCAAGCGCCATCTAC | 0.258
GATGATTGTTCTCCCAGCTGATGAATTTCCAGATTCGAGTAAACAAATTTTCCTAATCTTTCTGTTCAAGCGCCATCTAC | 0.205
GATGATTGTTCTCCCAGCTGATGAATTGGGTCGCTCGAGTAAACAAATTTTCCTAATCTTTCTGTTCAAGCGCCATCTAC | 0.326
GATGATTGTTCTCCCAGCTGATGAATTCGGTTCGTCGAGTAAACAAATTTTCCTAATCTTTCTGTTCAAGCGCCATCTAC | 0.926
GATGATTGTTCTCCCAGCTGATGAATTTTTTTCTTCGAGTAAACAAATTTTCCTAATCTTTCTGTTCAAGCGCCATCTAC | 0.286
GATGATTGTTCTCCCAGCTGATGAATTGCTTCTCTCGAGTAAACAAATTTTCCTAATCTTTCTGTTCAAGCGCCATCTAC | 0.525

Reference: PMC12820563
